# Results: a collection of fitness landscapes (doi:10.1016/j.celrep.2020.107928)
# Over roughly 81,000 sequences, “one-hybrid fitness for binding parS DNA” has its median near -0.17; the highest 2% begin near 0.51. Some of the results follow.
# B1: Caulobacter ParB omega fusion; a variant is named by its letters at X, in order, B8GW30 (parent)
# chain: MESVVVGEPGMSEGRRGLGRGLSALLGEVDAAPAQAPGEQLGGSREAPIEILQRNPDQPRRTFREEDLEDLSNSIREKGVLQPILVRPSPDTAGEYQIVAGERAWRAAQRAGLKTVPIMVRELDDLAVLEIGIIENVQRADLNVLEEALSYKVLMEKFERTQENIAQTIGKSXSHVANXMRLLXLPDEVQSYLVSGELTAXHARAIAAAADPVALAKQIIEGGLSVRETEALARKAPNLSAGKSKGGRPPRVKDTDTQALESDLSSVLGLDVSIDHRGSTGTLTITYATLEQLDDLCNRLTRGI
# Variants of: B1
# Test: one-hybrid fitness for binding parS DNA (scaled: cognate 1, non-cognate 0); higher = stronger binding
# Conditions: with parS DNA site
# How it was run: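 Pre- and post-selection plasmids were Illumina-sequenced, three replicate libraries were pooled, and any variant with under 10 reads was removed. The libraries were Caulobacter ParB with four specificity codons randomised, selected in E. coli USO through a HIS3 reporter whose site is 19 bp from the promoter. Cells grew 48 hours at 37°C on M9 without histidine, with 0.1 mM IPTG and 5 mM 3-AT. Fitness is the log change in variant-to-wild-type read ratio, rescaled against cognate and non-cognate.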
row,Variant,one-hybrid fitness for binding parS DNA
1,VRHL,≤ 0.2
2,YQVR,≤ 0.2
3,DHVA,≤ 0.2
4,SCTK,≤ 0.2
5,IVIR,≤ 0.2
6,EPFR,≤ 0.2
7,WVKT,≤ 0.2
8,RVEG,0.813
9,PLDG,≤ 0.2
10,VNNN,≤ 0.2
11,SGVI,≤ 0.2
12,AAHL,≤ 0.2
13,QLCL,≤ 0.2
14,FQTG,≤ 0.2
15,TDNR,≤ 0.2
16,PWRY,≤ 0.2
17,MTAT,≤ 0.2
18,NVGC,≤ 0.2
19,AHSI,≤ 0.2
20,FLMR,≤ 0.2
21,RMNE,≤ 0.2
22,QRTG,≤ 0.2
23,LSDG,≤ 0.2
24,WMNV,≤ 0.2
25,GEYT,≤ 0.2

row,Variant,one-hybrid fitness for binding parS DNA
1,ARIL,≤ 0.2
2,PWVY,≤ 0.2
3,RSFC,0.892
4,LVWD,≤ 0.2
5,WLNC,≤ 0.2
6,QMGA,≤ 0.2
7,VIAN,≤ 0.2
8,RKDW,≤ 0.2
9,QTGD,≤ 0.2
10,PVRT,≤ 0.2
11,MVSA,≤ 0.2
12,HRNE,≤ 0.2
13,FPRG,≤ 0.2
14,LVLM,≤ 0.2
15,SAKF,≤ 0.2
16,WGVS,≤ 0.2
17,EITG,≤ 0.2
18,SCSI,≤ 0.2
19,LAGG,≤ 0.2
20,MPRP,≤ 0.2
21,PVIG,≤ 0.2
22,SERW,≤ 0.2
23,LTND,≤ 0.2
24,DRQV,≤ 0.2
25,DPSH,≤ 0.2

row,Variant,one-hybrid fitness for binding parS DNA
1,IEAR,≤ 0.2
2,DVYG,≤ 0.2
3,GVQV,≤ 0.2
4,QTMD,≤ 0.2
5,PRVQ,≤ 0.2
6,TRPN,≤ 0.2
7,KAAY,≤ 0.2
8,PWAS,≤ 0.2
9,MMLF,≤ 0.2
10,ESRC,≤ 0.2
11,SICY,≤ 0.2
12,TYYY,≤ 0.2
13,RTVE,≤ 0.2
14,RQYA,0.583
15,EPGF,≤ 0.2
16,QPDK,≤ 0.2
17,PEVT,≤ 0.2
18,HAPC,≤ 0.2
19,SMNV,≤ 0.2
20,TNQS,≤ 0.2
21,SQTM,≤ 0.2
22,KACG,≤ 0.2
23,QSVM,≤ 0.2
24,MATH,≤ 0.2
25,ATCW,≤ 0.2

row,Variant,one-hybrid fitness for binding parS DNA
1,RGYI,≤ 0.2
2,FMKF,≤ 0.2
3,RSYQ,≤ 0.2
4,ICSL,≤ 0.2
5,ALKN,≤ 0.2
6,MDSC,≤ 0.2
7,LTAR,≤ 0.2
8,SIEL,≤ 0.2
9,WIAS,≤ 0.2
10,VLQP,≤ 0.2
11,RAMG,0.995
12,MDPA,≤ 0.2
13,ECNC,≤ 0.2
14,IRVG,≤ 0.2
15,FEMN,≤ 0.2
16,PYQR,≤ 0.2
17,QCTK,≤ 0.2
18,SAAP,≤ 0.2
19,RVCQ,≤ 0.2
20,EHMT,≤ 0.2
21,TKYC,≤ 0.2
22,QKRE,≤ 0.2
23,EPAL,≤ 0.2
24,FKKG,≤ 0.2
25,FLKN,0.249

row,Variant,one-hybrid fitness for binding parS DNA
1,VEIT,≤ 0.2
2,KRVR,0.276
3,RHCP,≤ 0.2
4,HAMG,≤ 0.2
5,IRDG,≤ 0.2
6,QRWI,≤ 0.2
7,VTRG,≤ 0.2
8,RVVA,0.565
9,TSSW,≤ 0.2
10,AVEC,≤ 0.2
11,HWPT,≤ 0.2
12,YFAA,≤ 0.2
13,LMKK,≤ 0.2
14,MNYW,≤ 0.2
15,NRQP,≤ 0.2
16,IENR,≤ 0.2
17,QYKM,≤ 0.2
18,FACY,≤ 0.2
19,RFNS,0.984
20,ARKY,≤ 0.2
21,QFFY,≤ 0.2
22,VHQV,≤ 0.2
23,CDRT,≤ 0.2
24,HRPF,≤ 0.2
25,PHDG,≤ 0.2

row,Variant,one-hybrid fitness for binding parS DNA
1,ENHK,≤ 0.2
2,RDFG,≤ 0.2
3,MFTW,≤ 0.2
4,VVSL,≤ 0.2
5,LMMR,≤ 0.2
6,RYHR,≤ 0.2
7,HMAC,≤ 0.2
8,SDSQ,≤ 0.2
9,KPSG,≤ 0.2
10,AVGR,≤ 0.2
11,YEGT,≤ 0.2
12,ISRR,≤ 0.2
13,LYMG,≤ 0.2
14,SYRG,≤ 0.2
15,MGPG,≤ 0.2
16,MRAA,≤ 0.2
17,PVFG,≤ 0.2
18,SLML,≤ 0.2
19,NYKV,≤ 0.2
20,DLVW,≤ 0.2
21,RVVM,0.29
22,NQME,≤ 0.2
23,PTSD,≤ 0.2
24,RNSE,≤ 0.2
25,CQNG,≤ 0.2

row,Variant,one-hybrid fitness for binding parS DNA
1,DCHG,≤ 0.2
2,QMME,≤ 0.2
3,SKLT,≤ 0.2
4,DVKS,≤ 0.2
5,IMLT,≤ 0.2
6,VMRY,≤ 0.2
7,GIYN,≤ 0.2
8,RTSG,1
9,HRNR,≤ 0.2
10,DYRG,≤ 0.2
11,PMGQ,≤ 0.2
12,DELC,≤ 0.2
13,CIFS,≤ 0.2
14,PPMW,≤ 0.2
15,RLPF,≤ 0.2
16,AWSS,≤ 0.2
17,YPCL,≤ 0.2
18,CCIT,≤ 0.2
19,WLKG,≤ 0.2
20,STLG,≤ 0.2
21,HKKN,≤ 0.2
22,RVWV,≤ 0.2
23,LWNG,≤ 0.2
24,YNNS,≤ 0.2
25,CTPD,≤ 0.2

row,Variant,one-hybrid fitness for binding parS DNA
1,GVAL,≤ 0.2
2,RAAT,0.909
3,GCTL,≤ 0.2
4,EGQG,≤ 0.2
5,RTYD,≤ 0.2
6,QPFF,≤ 0.2
7,QLKI,≤ 0.2
8,LERK,≤ 0.2
9,RSKV,≤ 0.2
10,NDVH,≤ 0.2
11,PTPI,≤ 0.2
12,SDFS,≤ 0.2
13,VPIN,≤ 0.2
14,HGGR,≤ 0.2
15,QEAS,≤ 0.2
16,MHMG,≤ 0.2
17,FLKM,≤ 0.2
18,QMQF,≤ 0.2
19,LAYC,≤ 0.2
20,LASP,≤ 0.2
